Test results published in patent publication US20250250287A1, “HETEROCYCLIC COMPOUNDS, COMPOSITIONS THEREOF, AND METHODS OF TREATMENT THEREWITH” (BeiGene Switzerland GmbH, priority 2022, published 2025).

target: GST-tagged GDP-loaded KRAS G12V (amino acids 1-169) (Homo sapiens, UniProt P01116, G12V); assay: biochemical

| Structure (SMILES) | IC50 |
| --- | --- |
| Nc1cc(Cl)c(C(F)(F)F)c(-c2nc3c4c(nc(OC[C@@]56CCCN5C[C@H](F)C6)nc4c2F)N2CC[C@@H]2CCO3)c1 [Example 23, 3-chloro-5-((R)-6-fluoro-4-(((2R,7aS)-2-fluorotetrahydro-1H-pyrrolizin-7a(5H)-yl)methoxy)-1,10,11,11a-tetrahydro-2H-9-oxa-2a,3,5,8-tetraazacyclobuta[4,5]cycloocta[1,2,3-de]naphthalen-7-yl)-4-(trifluoromethyl)aniline] | 1.5 nM |
| N#Cc1c(N)sc2c(F)ccc(-c3cc4c5c(nc(OC[C@@]67CCCN6C[C@H](F)C7)nc5c3F)N3CCC[C@H]3CO4)c12 [Example 1, 2-amino-7-fluoro-4-((S)-4-fluoro-2-(((2R,7aS)-2-fluorotetrahydro-1H-pyrrolizin-7a(5H)-yl)methoxy)-8a,9,10,11-tetrahydro-8H-pyrrolo[2′,1′:3,4][1,4]oxazepino[5,6,7-de]quinazolin-5-yl)benzo[b]thiophene-3-carbonitrile] | 1.7 nM |
| Nc1cc(Cl)c(C(F)(F)F)c(-c2nc3c4c(nc(OC[C@@]56CCCN5C[C@H](F)C6)nc4c2F)N2CCC[C@@H]2CO3)c1 [Example 13, 3-chloro-5-((R)-7-fluoro-5-(((2R,7aS)-2-fluorotetrahydro-1H-pyrrolizin-7a(5H)-yl)methoxy)-2,3,11,11a-tetrahydro-1H-10-oxa-3a,4,6,9-tetraazanaphtho[1,8-ef]azulen-8-yl)-4-(trifluoromethyl)aniline] | 7.4 nM |
| C#Cc1c(F)ccc2cc(O)cc(-c3nc4c5c(nc(OCC67CCCN6CC(F)C7)nc5c3F)N3CCC3CO4)c12 (single isomer, unassigned) [Example 18] | 1.5 nM |
| Cc1cc(N)cc(-c2nc3c4c(nc(OC[C@@]56CCCN5C[C@H](F)C6)nc4c2F)N2CCC[C@@H]2CCO3)c1C(F)(F)F [Example 12, 3-((R)-7-fluoro-5-(((2R,7aS)-2-fluorotetrahydro-1H-pyrrolizin-7a(5H)-yl)methoxy)-1,2,3,11,12,12a-hexahydro-10-oxa-3a,4,6,9-tetraazacyclopenta[4,5]cycloocta[1,2,3-de]naphthalen-8-yl)-5-methyl-4-(trifluoromethyl)aniline] | 3.2 nM |
| C#Cc1c(F)ccc2cc(O)cc(-c3nc4c5c(nc(OC[C@@]67CCCN6C[C@H](F)C7)nc5c3F)N3C[C@H](F)C[C@H]3CO4)c12 [Example 19, 4-((2R,11aS)-2,7-difluoro-5-(((2R,7aS)-2-fluorotetrahydro-1H-pyrrolizin-7a(5H)-yl)methoxy)-2,3,11,11a-tetrahydro-1H-10-oxa-3a,4,6,9-tetraazanaphtho[1,8-ef]azulen-8-yl)-5-ethynyl-6-fluoronaphthalen-2-ol] | 0.71 nM |
| C#Cc1c(F)ccc2cc(O)cc(-c3cc4c5c(nc(OC[C@@]67CCCN6C[C@H](F)C7)nc5c3F)N3CCCCC3CCO4)c12 (stereo partly drawn) [Example 6, 5-ethynyl-6-fluoro-4-(1-fluoro-13-(((2R,7aS)-2-fluorotetrahydro-1H-pyrrolizin-7a(5H)-yl)methoxy)-6,6a,7,8,9,10-hexahydro-5H-pyrido[1′,2′:5,6][1,5]oxazocino[4,3,2-de]quinazolin-2-yl)naphthalen-2-ol] | 0.76 nM |
| Nc1cc(Cl)c(C(F)(F)F)c(-c2nc3c4c(nc(OC[C@@]56CCCN5C[C@H](F)C6)nc4c2F)N2CC[C@H]2CCO3)c1 [Example 22, 3-chloro-5-((S)-6-fluoro-4-(((2R,7aS)-2-fluorotetrahydro-1H-pyrrolizin-7a(5H)-yl)methoxy)-1,10,11,11a-tetrahydro-2H-9-oxa-2a,3,5,8-tetraazacyclobuta[4,5]cycloocta[1,2,3-de]naphthalen-7-yl)-4-(trifluoromethyl)aniline] | 6 nM |
| Nc1cc(Cl)c(C(F)(F)F)c(-c2nc3c4c(nc(OC[C@@]56CCCN5C[C@H](F)C6)nc4c2F)N2CCCC[C@H]2CO3)c1 [Example 15, 3-chloro-5-((S)-1-fluoro-11-(((2R,7aS)-2-fluorotetrahydro-1H-pyrrolizin-7a(5H)-yl)methoxy)-5,5a,6,7,8,9-hexahydro-4-oxa-3,9a,10,12-tetraazabenzo[4,5]cyclohepta[1,2,3-de]naphthalen-2-yl)-4-(trifluoromethyl)aniline] | 4.8 nM |
| N#Cc1c(N)sc2c(F)ccc(-c3cc4c5c(nc(OC[C@@]67CCCN6C[C@H](F)C7)nc5c3F)N3CCC[C@@H]3CCO4)c12 [Example 5, 2-amino-7-fluoro-4-((R)-8-fluoro-6-(((2R,7aS)-2-fluorotetrahydro-1H-pyrrolizin-7a(5H)-yl)methoxy)-1,2,3,12,13,13a-hexahydropyrrolo[1′,2′:5,6][1,5]oxazocino[4,3,2-de]quinazolin-9-yl)benzo[b]thiophene-3-carbonitrile] | 3.6 nM |
| Nc1cc(Cl)c(C(F)(F)F)c(-c2nc3c4c(nc(OC[C@@]56CCCN5C[C@H](F)C6)nc4c2F)N2CCC[C@H]2CO3)c1 [Example 9, 3-chloro-5-((S)-7-fluoro-5-(((2R,7aS)-2-fluorotetrahydro-1H-pyrrolizin-7a(5H)-yl)methoxy)-2,3,11,11a-tetrahydro-1H-10-oxa-3a,4,6,9-tetraazanaphtho[1,8-e]azulen-8-yl)-4-(trifluoromethyl)aniline] | 6.4 nM |
| C#Cc1c(F)ccc2cc(O)cc(-c3cc4c5c(nc(OC[C@@]67CCCN6C[C@H](F)C7)nc5c3F)N3CC(F)(F)C[C@H]3CO4)c12 [Example 4, 5-ethynyl-6-fluoro-4-((S)-2,2,8-trifluoro-6-(((2R,7aS)-2-fluorotetrahydro-1H-pyrrolizin-7a(5H)-yl)methoxy)-2,3,12,12a-tetrahydro-1H-pyrrolo[2′,1′:3,4][1,4]oxazepino[5,6,7-de]quinazolin-9-yl)naphthalen-2-ol] | 10 nM |
| Nc1cc(Cl)c(C(F)(F)F)c(-c2nc3c4c(nc(OC[C@@]56CCCN5C[C@H](F)C6)nc4c2F)N2CCC[C@@H]2CCO3)c1 [Example 11, 3-chloro-5-((R)-7-fluoro-5-(((2R,7aS)-2-fluorotetrahydro-1H-pyrrolizin-7a(5H)-yl)methoxy)-1,2,3,11,12,12a-hexahydro-10-oxa-3a,4,6,9-tetraazacyclopenta[4,5]cycloocta[1,2,3-de]naphthalen-8-yl)-4-(trifluoromethyl)aniline] | 1.6 nM |
| C#Cc1c(F)ccc2cc(O)cc(-c3nc4c5c(nc(OCC67CCCN6CC(F)C7)nc5c3F)N3CCC3CO4)c12 (single isomer, unassigned) [Example 20] | 0.57 nM |
| Nc1cc(Cl)c(C(F)(F)F)c(-c2nc3c4c(nc(OC[C@@]56CCCN5C[C@H](F)C6)nc4c2F)N2CCC(F)C2CO3)c1 (stereo partly drawn) [Example 17, 3-chloro-5-(1,7-difluoro-5-(((2R,7aS)-2-fluorotetrahydro-1H-pyrrolizin-7a(5H)-yl)methoxy)-2,3,11,11a-tetrahydro-1H-10-oxa-3a,4,6,9-tetraazanaphtho[1,8-ef]azulen-8-yl)-4-(trifluoromethyl)aniline] | 8.9 nM |
| N#Cc1c(N)sc2c(F)ccc(-c3c(Cl)c4c5c(nc(OC[C@@]67CCCN6C[C@H](F)C7)nc5c3F)N3CCC[C@@H]3CCO4)c12 [Example 7, 2-amino-4-((13aR)-10-chloro-8-fluoro-6-(((2R,7aS)-2-fluorotetrahydro-1H-pyrrolizin-7a (5H)-yl)methoxy)-1,2,3,12,13,13a-hexahydropyrrolo[1′,2′:5,6][1,5]oxazocino[4,3,2-de]quinazolin-9-yl)-7-fluorobenzo[b]thiophene-3-carbonitrile] | 0.48 nM |
